From PubChem BioAssay AID1508642 (National Center for Advancing Translational Sciences (NCATS), 2021)
In all, about 43,000 compounds went through this assay and about 200 (0.47%) were called active. Inconclusive results (about 12%) are left out. Calls follow the shape of the dose curve; as a rule, active = well fitted cell-killing curve with a large enough effect; inconclusive = small, poorly fitted or top-dose-only effect, or effect the other way; inactive = flat fitted curve, though single readings scatter. Some of the results follow.

Experiment: Cell viability qHTS assay in S16 Pmp22-F2sN cells; also: nearly all actives have a fitted effect of over 65% in size
Settings: S16 Pmp22-F2sN Schwann cells (luciferase reporters placed in the Pmp22 gene) viability, CellTiter-Glo, 24 h; series mostly up to 57.5 µM; activity change, negative = cytotoxicity: at the top concentration
Outline: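 S16 Schwann cells carrying the Pmp22-F2sN reporter, seeded in 1536-well format, were exposed to library compounds for 24 h at 37C. Viability was read as CellTiter-Glo luminescence after 15 min at room temperature.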
% is scaled to controls: 0 for no effect and ±100 for the full control effect.

Row | Compound | activity change, negative = cytotoxicity
1 | Cc1ccc(CC(=O)N(Cc2nc(-c3ccc(C)cc3)no2)C(C)C)cc1 | inactive: -21%
2 | O=C(CCc1nc(-c2ccccc2F)no1)Nc1cccc(C(F)(F)F)c1 | inactive: -17.2%
3 | Cc1nn(-c2ccccc2)c(OC(=O)c2ccc(Br)cc2)c1S(=O)(=O)c1ccccc1 | inactive: 5%
4 | Cc1cc2nn(-c3ccc(Cl)cc3)nc2cc1NC(=O)C(C)C | inactive: -2.38%
5 | COCCCNc1ncnc2c1c(-c1ccccc1)cn2-c1ccc(C)c(Cl)c1 | inactive: -2.49%
6 | CCn1c(CN2CCN(c3cccc(Cl)c3)CC2)nc2c1c(=O)[nH]c(=O)n2C | inactive: 3.42%
7 | O=C(COc1ccc(Cl)cc1)Nc1cc(-c2ccccc2)no1 | inactive: -4.19%
8 | COc1ccc(OC)c(NC(=O)CN2C(=O)CC(c3ccco3)Sc3ccccc32)c1 (stereo not drawn) | inactive: -1.53%
9 | COc1ccc2c(c1)c1c(c(=O)n(-c3ccccc3C)c(=O)n1Cc1ccccc1C)n2C | inactive: -0.434%
10 | Cn1c(=O)c2sccc2n2c(CCCC(=O)Nc3ccc(F)cc3F)nnc12 | inactive: 4.97%
11 | CC(=O)Nc1cc(C(=O)NCc2ccccc2)ccc1Sc1ccc(C)cc1 | inactive: 1.28%
12 | Cc1cccc(N2CCN(C(=O)Cn3c(=O)c4cccn4c4ccc(F)cc43)CC2C)c1 (stereo not drawn) | inactive: 0.933%
13 | CNS(=O)(=O)c1cn(CC(=O)Nc2ccc(F)cc2F)cc1S(=O)(=O)NC | inactive: 0.418%
14 | Cc1ccc(N2CC(c3nnc(Cc4ccc(Cl)cc4)o3)CC2=O)cc1 (stereo not drawn) | inactive: 0.159%
15 | O=C(NC1CCCCC1)c1ccc(Cn2c(SCc3cccc(F)c3)nc3cccnc32)cc1 | inactive: -29%
16 | CN(C(=O)CSc1cn(CC(=O)N2CCCCCC2)c2ccccc12)c1ccccc1 | inactive: -15.2%
17 | Cc1ccc(CNC(=O)C(C(C)C)N2Cc3ccccc3C2=O)cc1 (stereo not drawn) | inactive: -6.38%
18 | CCN(c1ccc(OC)cc1)S(=O)(=O)c1c(C(=O)N2CCCCCC2)c(C)n(C)c1C | inactive: 9.79%
19 | COc1ccc(N2CCN(CC(O)COc3ccccc3C(C)(C)C)CC2)cc1 (stereo not drawn) | inactive: 12.7%
20 | CCc1ccccc1Nc1nn2c(=O)c3ccc(C(=O)NCCc4ccccc4)cc3nc2s1 | inactive: 6.17%
21 | Cc1c(Cl)cccc1NC(=O)CN1C(=O)c2ccccc2Sc2ncccc21 | inactive: 17.3%
22 | Cc1cccc(C(=O)NC2(C(F)(F)F)N=C(c3ccccc3)N(Cc3ccccc3)C2=O)c1 (stereo not drawn) | inactive: 1.17%
23 | CCOc1ccc2c(c1)c(=O)c(S(=O)(=O)c1ccc(C)cc1)cn2CC(=O)Nc1ccc(C)cc1 | inactive: 0.123%
24 | CCn1c(=O)c2cc(C(=O)NCCc3cccc(C)c3)sc2c2ccccc21 | inactive: 5.31%
25 | Cc1ccc(-c2c(CN3CCN(c4cc(Cl)ccc4C)CC3)csc2C)cc1 | inactive: 6.81%

Row | Compound | activity change, negative = cytotoxicity
26 | CC(=O)N1CCc2c(sc3c2c(=O)n(-c2ccccc2Cl)c(=O)n3C)C1 | inactive: -5.84%
27 | O=C(CSc1nc2ccccc2n1CC(=O)Nc1ccc(F)cc1F)Nc1ccc(F)cc1 | inactive: 3.89%
28 | Cc1nc(-c2ccc(F)cc2)sc1CCNC(=O)c1ccccc1 | inactive: 12.6%
29 | CCCN(C(=O)C1CCN(S(=O)(=O)c2c(C)noc2/C=C/c2ccc(C)cc2)CC1)c1ccccc1F | inactive: 2%
30 | CCN1CCOC(=O)C1CC(=O)Nc1ccccc1C(F)(F)F (stereo not drawn) | inactive: -3.04%
31 | COC(=O)c1cc(C)nc2c1c(=O)nc(SCc1cc(C)ccc1C)n2C1CC1 | inactive: -5.35%
32 | CCCN(Cc1cc2cc(C)ccc2[nH]c1=O)C(=O)c1cccc(Cl)c1 | inactive: 2.83%
33 | CC(=O)c1ccc(NC(=O)c2cccc(NC(=O)N3CCSc4ncccc43)c2)cc1 | inactive: -2.36%
34 | Cc1cc(C)cc(N(C)S(=O)(=O)c2nnc(NC(=O)COc3ccc(C)c(C)c3)s2)c1 | inactive: 11.2%
35 | CCOCCCNC(=O)c1c(NC(=O)Cc2coc3c(C)c(C)ccc23)sc2c1CCC2 | inactive: -11.1%
36 | CCOC(=O)Cn1nc(C)c(NC(=O)COc2ccc(OC)cc2)c1C | inactive: -5.25%
37 | CCn1c2ccccc2c2cc(NC(=O)COc3cc(C)c(Cl)c(C)c3)ccc21 | inactive: -1.62%
38 | Cc1ccccc1C(=O)Nc1ccc(NC(=O)c2cccs2)cc1 | inactive: -0.818%
39 | CCOc1ccc(-c2csc3ncnc(Nc4cccc(O)c4)c23)cc1 | inactive: 2.59%
40 | COc1ccc2oc(=O)c(C(=O)NCCc3c(C)[nH]c4c(C)cccc34)cc2c1 | inactive: 6.89%
41 | COC(=O)c1cc(NC(=O)CCS(=O)(=O)c2cc(Br)cc3c2N(C(=O)C2CC2)CC3)cc(C(=O)OC)c1 | inactive: 4.5%
42 | CCOc1cc2[nH]c(=O)n(CCC(=O)N3CCN(c4cccc(Cl)c4)CC3)c(=O)c2cc1OCC | inactive: 13.5%
43 | CC(=O)N1CCCc2cc(S(=O)(=O)N3CCC(C(=O)NCc4ccc(F)cc4)CC3)ccc21 | inactive: -1.92%
44 | CCOC(=O)c1c(C)oc2nc(C)nc(N3CCN(c4ccc(C)cc4C)CC3)c12 | inactive: -13.8%
45 | COc1ccc(C(=O)NCC(c2ccco2)S(=O)(=O)c2ccccc2)cc1 (stereo not drawn) | inactive: 3.42%
46 | CCOC(=O)c1c(C)n(-c2ccccc2)c2ccc(OC(=O)c3ccccc3Cl)cc12 | inactive: 5.92%
47 | CC(C)COc1ccc(C(=O)NCC2OCCc3ccccc32)cc1 (stereo not drawn) | inactive: 17.5%
48 | COc1ccccc1N1CCN(C(=O)C2CCN(S(=O)(=O)c3cccc4nonc34)CC2)CC1 | inactive: 1.15%
49 | Nc1ncc(S(=O)(=O)NCc2ccccc2F)cn1 | inactive: 13%
50 | NC(=O)c1c(NC(=O)c2noc3c2CCCC3)sc2c1CCCC2 | inactive: 4.45%

Row | Compound | activity change, negative = cytotoxicity
51 | Cc1cc(C)n2nc(CNC(=O)c3cccc(Cl)c3)nc2n1 | inactive: -7.86%
52 | Cc1ccc(NC(=O)COc2ccc3oc4c(c3c2)CCCC4)c(C)c1 | inactive: 6.14%
53 | CN(C)c1ccc(-c2nc(-c3ccccn3)no2)cc1[N+](=O)[O-] | inactive: -18.3%
54 | Cc1cccc(CNC(=O)c2ccc(-c3nc(CS(=O)(=O)c4ccccc4)c(C)o3)cc2)c1 | inactive: -24.9%
55 | Cc1ccc(CCNC(=O)Cn2nc(C)c3c(C)n(-c4ccc(C)cc4)nc3c2=O)cc1 | inactive: -19.3%
56 | COC(=O)c1sccc1S(=O)(=O)N(CC(=O)Nc1ccc(C)cc1)c1ccccc1 | inactive: 1.19%
57 | COc1ccccc1N1CCN(C(=O)CCn2cnc3onc(-c4ccc(F)cc4)c3c2=O)CC1 | inactive: -22.6%
58 | COc1cccc2cc(-c3nnc(Nc4ccccc4C)s3)c(=O)oc12 | inactive: 4.88%
59 | Cc1cccc(NC(=O)CSc2nnc(-c3cccs3)o2)c1 | inactive: -7.29%
60 | Cc1cccc(NC(=O)C(c2ccccc2)N2Cc3ccccc3C2=O)c1C (stereo not drawn) | inactive: 2.19%
61 | Cc1noc2ncnc(Nc3ccc(F)cc3)c12 | inactive: -0.48%
62 | Cc1ccc(CCNC(=O)NCc2noc3ccc(C)cc23)cc1 | inactive: 4.74%
63 | CCOc1ccc(-c2cc3nc(C4CCN(C(=O)OC(C)(C)C)CC4)c(C(=O)Nc4ccc(C(=O)OC)cc4)cn3n2)cc1 | inactive: 4%
64 | Cc1cc(C)cc(N2C(=O)CS(=O)(=O)C23C(=O)N(Cc2ccc(F)cc2)c2ccc(C)cc23)c1 (stereo not drawn) | inactive: 2.01%
65 | COc1ccc(NC(=O)Cn2c(=O)nc(-c3ccccc3)c3ccccc32)cc1OC | inactive: 1.86%
66 | COc1ccc(NC(=O)c2cccc(N3CCCS3(=O)=O)c2)cc1 | inactive: 3.37%
67 | NC(=O)CSc1ncc2c(n1)-c1ccccc1N(Cc1ccccc1)S2(=O)=O | inactive: 2.33%
68 | Cc1ccc(-c2noc(CCC(=O)Nc3ccc(F)cc3Cl)n2)cc1 | inactive: 1.62%
69 | Cc1nn(C)c2c1c(-c1ccccc1)cc(=O)n2Cc1ccccc1F | inactive: -9.44%
70 | Cc1cc(C)c2c(=O)cc(C(=O)NCCc3ccc(S(N)(=O)=O)cc3)oc2c1 | inactive: 14.9%
71 | CCOc1ccc(Sc2cc(C(=O)NCc3ccc(F)cc3)c3ccccc3n2)cc1 | inactive: -1.47%
72 | CC(=O)CSc1nc(-c2ccccc2)[nH]c1S(=O)(=O)c1ccc(C)cc1 | inactive: -3.17%
73 | CCn1cc(C(=O)N2CCN(c3ccccc3)CC2)c(=O)c2cc(S(=O)(=O)N(C)C3CCCCC3)ccc21 | inactive: -0.475%
74 | CCC(C)NC(=O)Cn1ncc2c(C)n(Cc3ccc(F)cc3)c(C)c2c1=O (stereo not drawn) | inactive: 0.144%
75 | CCc1ccc(CNC(=O)c2nn(-c3ccc(C)c(C)c3)nc2CO)cc1 | inactive: -0.559%

Row | Compound | activity change, negative = cytotoxicity
76 | Cc1ccc2c(=O)cc(C(=O)Nc3sc4c(c3C(=O)NCc3ccco3)CCCC4)oc2c1C | inactive: 20.9%
77 | COC(=O)c1ccc(Cn2c(=O)cc(C)c3c(C)nn(C)c32)cc1 | inactive: 4.64%
78 | Cc1cc(=O)[nH]c2nnc(SCC(=O)Nc3cc(C(F)(F)F)ccc3Cl)n12 | inactive: -11.7%
79 | O=C(CN1C(=O)CCSc2ccc(S(=O)(=O)N3CCCC3)cc21)Nc1cccc(Cl)c1 | inactive: 1.24%
80 | CCN(CC)S(=O)(=O)c1ccc2c(c1)N(CC(=O)NCc1ccccc1)C(=O)CS2 | inactive: 3.95%
81 | COc1cc(Cl)c(C)cc1NC(=O)CSc1cc(=O)n(C)c2cc(Cl)ccc12 | inactive: 9.76%
82 | Cn1ncc2c(NCc3cccc(Cl)c3)ncnc21 | inactive: -20.5%
83 | CCOc1ccc(NC(=O)Nc2c(C)n(C)n(-c3ccccc3)c2=O)cc1 | inactive: 10.4%
84 | CN(C)c1ccc(C(CNC(=O)COc2ccccc2)N2CCOCC2)cc1 (stereo not drawn) | inactive: 4.23%
85 | COC(=O)c1scc(-c2ccc(C)cc2)c1S(=O)(=O)N1CCN(c2cccc(OC)c2)CC1 | inactive: 12.3%
86 | Fc1ccc(Nc2c3c(nc4ccccc24)CCC3)cc1 | inactive: -3.59%
87 | CCc1nnc(SC(CC)C(=O)Nc2cccc(OC)c2)c2cc3oc(C)cc3n12 (stereo not drawn) | inactive: -8.3%
88 | Cc1ccc(Sc2c(C)nn(C(C)(C)C)c2OC(=O)C(C)(C)C)cc1 | inactive: -1.4%
89 | CCc1ccc(CN(Cc2ccco2)c2cnc(S(C)(=O)=O)nc2C(=O)Nc2ccccc2Cl)cc1 | inactive: 5.65%
90 | CCN(C(=O)C1CCCN(S(=O)(=O)c2c(C)noc2/C=C/N(C)C)C1)c1cccc(C)c1 (stereo not drawn) | inactive: -17.2%
91 | CCN(c1ccccc1)c1nnc(NC(=O)Nc2ccccc2F)s1 | inactive: 4.65%
92 | O=C(NCc1ccco1)c1ccc2c(c1)N(Cc1ccc(Cl)cc1)C(=O)c1ccccc1S2=O (stereo not drawn) | inactive: 1.98%
93 | CCOC(=O)c1ccc(NC(=O)CC2C(=O)OCCN2CC)cc1 (stereo not drawn) | inactive: 4.95%
94 | CCOc1ccccc1NC(=O)CN(C)S(=O)(=O)c1ccc2nc(C)sc2c1 | inactive: 15.3%
95 | CCC(=O)N1CCc2cc(Br)cc(S(=O)(=O)CCC(=O)NCc3ccc(Cl)cc3)c21 | inactive: -2.98%
96 | Cc1nc(Oc2ccc(F)cc2Cl)c2oc3ccccc3c2n1 | inactive: 2.21%
97 | Cc1ccc(C)c(NC(=O)CN2C(=O)C(C)(C)c3ccccc32)c1 | inactive: 12.7%
98 | COc1ccc(Br)cc1CNC(=O)c1cc2n(n1)CCCN(Cc1ccc(C)cc1)C2=O | inactive: -14.8%
